The results in this text go back to patent US20260008835A1 (SHANGHAI REGENELEAD THERAPIES, published 2026).

The labels stand for the following.
T1: Human VEGF-A protein (human, UniProt P15692-4 27-191, limits assumed)
T1 sequence (looked up): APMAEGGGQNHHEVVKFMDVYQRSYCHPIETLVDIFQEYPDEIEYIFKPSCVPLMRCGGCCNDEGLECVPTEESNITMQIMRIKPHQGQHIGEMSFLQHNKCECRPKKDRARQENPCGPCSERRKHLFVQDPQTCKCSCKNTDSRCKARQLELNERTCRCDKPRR

B1: PR1167 (R1D2-R2D3-R2D2 (C162V)-R2D3 (N274F/S283T)-Fc) (Fc fusion)
chain: SDTGRPFVEMYSEIPEIIHMTEGRELVIPCRVTSPNITVTLKKFPLDTLIPDGKRIIWDSRKGFIISNATYKEIGLLTCEATVNGHLYKTNYLTHRQTNTIIDVVLSPSHGIELSVGEKLVLNCTARTELNVGIDFNWEYPSSKHQHKKLVNRDLKTQSGSEMKKFLSTLTIDGVTRSDQGLYTCAASSGLMTKKNSTFVRVHEKSPFIASVSDQHGVVYITENKNKTVVIPCLGSISNLNVSLVARYPEKRFVPDGNRISWDSKKGFTIPSYMISYAGMVFCEAKINDESYQSIMYIVVVVGYRIYDVVLSPSHGIELSVGEKLVLNCTARTELNVGIDFNWEYPSSKHQHKKLVFRDLKTQSGTEMKKFLSTLTIDGVTRSDQGLYTCAASSGLMTKKNSTFVRVHEK[human IgG1 Fc with changes not printed]
B2: PR1170 (R1D2-R2D3-R2D2(C162V/Y221S/R222K)-R2D3 (N274F/S283T)-Fc) (Fc fusion)
chain: SDTGRPFVEMYSEIPEIIHMTEGRELVIPCRVTSPNITVTLKKFPLDTLIPDGKRIIWDSRKGFIISNATYKEIGLLTCEATVNGHLYKTNYLTHRQTNTIIDVVLSPSHGIELSVGEKLVLNCTARTELNVGIDFNWEYPSSKHQHKKLVNRDLKTQSGSEMKKFLSTLTIDGVTRSDQGLYTCAASSGLMTKKNSTFVRVHEKSPFIASVSDQHGVVYITENKNKTVVIPCLGSISNLNVSLVARYPEKRFVPDGNRISWDSKKGFTIPSYMISYAGMVFCEAKINDESYQSIMYIVVVVGSKIYDVVLSPSHGIELSVGEKLVLNCTARTELNVGIDFNWEYPSSKHQHKKLVFRDLKTQSGTEMKKFLSTLTIDGVTRSDQGLYTCAASSGLMTKKNSTFVRVHEK[human IgG1 Fc with changes not printed]
B3: PR1168 (R1D2-R2D3-R2D2(C162V/Y221S/R222K)-R2D3 (N274F)-Fc) (Fc fusion)
chain: SDTGRPFVEMYSEIPEIIHMTEGRELVIPCRVTSPNITVTLKKFPLDTLIPDGKRIIWDSRKGFIISNATYKEIGLLTCEATVNGHLYKTNYLTHRQTNTIIDVVLSPSHGIELSVGEKLVLNCTARTELNVGIDFNWEYPSSKHQHKKLVNRDLKTQSGSEMKKFLSTLTIDGVTRSDQGLYTCAASSGLMTKKNSTFVRVHEKSPFIASVSDQHGVVYITENKNKTVVIPCLGSISNLNVSLVARYPEKRFVPDGNRISWDSKKGFTIPSYMISYAGMVFCEAKINDESYQSIMYIVVVVGSKIYDVVLSPSHGIELSVGEKLVLNCTARTELNVGIDFNWEYPSSKHQHKKLVFRDLKTQSGSEMKKFLSTLTIDGVTRSDQGLYTCAASSGLMTKKNSTFVRVHEK[human IgG1 Fc with changes not printed]
B4: PR1169 (R1D2-R2D3-R2D2(C162V/Y221S/R222K)-R2D3 (S283T)-Fc) (Fc fusion)
chain: SDTGRPFVEMYSEIPEIIHMTEGRELVIPCRVTSPNITVTLKKFPLDTLIPDGKRIIWDSRKGFIISNATYKEIGLLTCEATVNGHLYKTNYLTHRQTNTIIDVVLSPSHGIELSVGEKLVLNCTARTELNVGIDFNWEYPSSKHQHKKLVNRDLKTQSGSEMKKFLSTLTIDGVTRSDQGLYTCAASSGLMTKKNSTFVRVHEKSPFIASVSDQHGVVYITENKNKTVVIPCLGSISNLNVSLVARYPEKRFVPDGNRISWDSKKGFTIPSYMISYAGMVFCEAKINDESYQSIMYIVVVVGSKIYDVVLSPSHGIELSVGEKLVLNCTARTELNVGIDFNWEYPSSKHQHKKLVNRDLKTQSGTEMKKFLSTLTIDGVTRSDQGLYTCAASSGLMTKKNSTFVRVHEK[human IgG1 Fc with changes not printed]
B5: PR1171 (R1D2-R2D3-linker-R2D2 (C162V)-R2D3 (N274F/S283T)-Fc) (Fc fusion)
chain: SDTGRPFVEMYSEIPEIIHMTEGRELVIPCRVTSPNITVTLKKFPLDTLIPDGKRIIWDSRKGFIISNATYKEIGLLTCEATVNGHLYKTNYLTHRQTNTIIDVVLSPSHGIELSVGEKLVLNCTARTELNVGIDFNWEYPSSKHQHKKLVNRDLKTQSGSEMKKFLSTLTIDGVTRSDQGLYTCAASSGLMTKKNSTFVRVHEKGGGGSSPFIASVSDQHGVVYITENKNKTVVIPCLGSISNLNVSLVARYPEKRFVPDGNRISWDSKKGFTIPSYMISYAGMVFCEAKINDESYQSIMYIVVVVGYRIYDVVLSPSHGIELSVGEKLVLNCTARTELNVGIDFNWEYPSSKHQHKKLVFRDLKTQSGTEMKKFLSTLTIDGVTRSDQGLYTCAASSGLMTKKNSTFVRVHEK[human IgG1 Fc with changes not printed]
B6: PR1166 (R1D2-R2D3-linker-R2D2 (C162L)-R2D3-Fc) (Fc fusion)
chain: SDTGRPFVEMYSEIPEIIHMTEGRELVIPCRVTSPNITVTLKKFPLDTLIPDGKRIIWDSRKGFIISNATYKEIGLLTCEATVNGHLYKTNYLTHRQTNTIIDVVLSPSHGIELSVGEKLVLNCTARTELNVGIDFNWEYPSSKHQHKKLVNRDLKTQSGSEMKKFLSTLTIDGVTRSDQGLYTCAASSGLMTKKNSTFVRVHEKGGGGSSPFIASVSDQHGVVYITENKNKTVVIPCLGSISNLNVSLLARYPEKRFVPDGNRISWDSKKGFTIPSYMISYAGMVFCEAKINDESYQSIMYIVVVVGYRIYDVVLSPSHGIELSVGEKLVLNCTARTELNVGIDFNWEYPSSKHQHKKLVNRDLKTQSGSEMKKFLSTLTIDGVTRSDQGLYTCAASSGLMTKKNSTFVRVHEK[human IgG1 Fc with changes not printed]
B7: PR1127 (R1D2-R2D3-linker-R2D2-R2D3 (L289Y)-Fc) (Fc fusion)
chain: SDTGRPFVEMYSEIPEIIHMTEGRELVIPCRVTSPNITVTLKKFPLDTLIPDGKRIIWDSRKGFIISNATYKEIGLLTCEATVNGHLYKTNYLTHRQTNTIIDVVLSPSHGIELSVGEKLVLNCTARTELNVGIDFNWEYPSSKHQHKKLVNRDLKTQSGSEMKKFLSTLTIDGVTRSDQGLYTCAASSGLMTKKNSTFVRVHEKGGGGSSPFIASVSDQHGVVYITENKNKTVVIPCLGSISNLNVSLCARYPEKRFVPDGNRISWDSKKGFTIPSYMISYAGMVFCEAKINDESYQSIMYIVVVVGYRIYDVVLSPSHGIELSVGEKLVLNCTARTELNVGIDFNWEYPSSKHQHKKLVNRDLKTQSGSEMKKFYSTLTIDGVTRSDQGLYTCAASSGLMTKKNSTFVRVHEK[human IgG1 Fc with changes not printed]
B8: PR1115 (R1D2-R2D3-linker-R2D2-R2D3 (R275L)-Fc) (Fc fusion)
chain: SDTGRPFVEMYSEIPEIIHMTEGRELVIPCRVTSPNITVTLKKFPLDTLIPDGKRIIWDSRKGFIISNATYKEIGLLTCEATVNGHLYKTNYLTHRQTNTIIDVVLSPSHGIELSVGEKLVLNCTARTELNVGIDFNWEYPSSKHQHKKLVNRDLKTQSGSEMKKFLSTLTIDGVTRSDQGLYTCAASSGLMTKKNSTFVRVHEKGGGGSSPFIASVSDQHGVVYITENKNKTVVIPCLGSISNLNVSLCARYPEKRFVPDGNRISWDSKKGFTIPSYMISYAGMVFCEAKINDESYQSIMYIVVVVGYRIYDVVLSPSHGIELSVGEKLVLNCTARTELNVGIDFNWEYPSSKHQHKKLVNLDLKTQSGSEMKKFLSTLTIDGVTRSDQGLYTCAASSGLMTKKNSTFVRVHEK[human IgG1 Fc with changes not printed]
B9: PR1118 (R1D2-R2D3-linker-R2D2-R2D3 (D276Q)-Fc) (Fc fusion)
chain: SDTGRPFVEMYSEIPEIIHMTEGRELVIPCRVTSPNITVTLKKFPLDTLIPDGKRIIWDSRKGFIISNATYKEIGLLTCEATVNGHLYKTNYLTHRQTNTIIDVVLSPSHGIELSVGEKLVLNCTARTELNVGIDFNWEYPSSKHQHKKLVNRDLKTQSGSEMKKFLSTLTIDGVTRSDQGLYTCAASSGLMTKKNSTFVRVHEKGGGGSSPFIASVSDQHGVVYITENKNKTVVIPCLGSISNLNVSLCARYPEKRFVPDGNRISWDSKKGFTIPSYMISYAGMVFCEAKINDESYQSIMYIVVVVGYRIYDVVLSPSHGIELSVGEKLVLNCTARTELNVGIDFNWEYPSSKHQHKKLVNRQLKTQSGSEMKKFLSTLTIDGVTRSDQGLYTCAASSGLMTKKNSTFVRVHEK[human IgG1 Fc with changes not printed]
B10: PR1129 (R1D2-R2D3-linker-R2D2-R2D3 (M314S)-Fc) (Fc fusion)
chain: SDTGRPFVEMYSEIPEIIHMTEGRELVIPCRVTSPNITVTLKKFPLDTLIPDGKRIIWDSRKGFIISNATYKEIGLLTCEATVNGHLYKTNYLTHRQTNTIIDVVLSPSHGIELSVGEKLVLNCTARTELNVGIDFNWEYPSSKHQHKKLVNRDLKTQSGSEMKKFLSTLTIDGVTRSDQGLYTCAASSGLMTKKNSTFVRVHEKGGGGSSPFIASVSDQHGVVYITENKNKTVVIPCLGSISNLNVSLCARYPEKRFVPDGNRISWDSKKGFTIPSYMISYAGMVFCEAKINDESYQSIMYIVVVVGYRIYDVVLSPSHGIELSVGEKLVLNCTARTELNVGIDFNWEYPSSKHQHKKLVNRDLKTQSGSEMKKFLSTLTIDGVTRSDQGLYTCAASSGLSTKKNSTFVRVHEK[human IgG1 Fc with changes not printed]

The first assay has as its target T1, Human VEGF-A protein. The assay is described as follows: cell-based or functional assay.
On to B1, for which the “VEGF-A IC50; VEGF-A-induced NFAT-RE-luc2P/KDR HEK293 reporter gene expression” value worked out at 1.1 nM.
On to B2, for which the “VEGF-A IC50; VEGF-A-induced NFAT-RE-luc2P/KDR HEK293 reporter gene expression” value amounted to 0.89 nM.
Same read-out and setting: next, B3: 1.15 nM; B4: 0.9 nM.
Still for that read-out and setting: the same measure for B5: 1.09 nM.

The target in another assay is T1, Human VEGF-A protein. The assay is described as follows: cell-based or functional assay. This is another data set of the same source.
Regarding B6, the “VEGF-A IC50; VEGF-A-induced NFAT-RE-luc2P/KDR HEK293 reporter gene expression” value was determined as 1.12 nM.
Same read-out and setting: next, B7: 0.52 nM; B8: 0.28 nM; B9: 0.22 nM.
On the same count and under the same terms, the same measure for B10: 0.67 nM.
